Data on 42 compounds can be found in ChEMBL document CHEMBL4888484, “Replenishing the malaria drug discovery pipeline: Screening and hit evaluation of the MMV Hit Generation Library 1 (HGL1) against asexual blood stage Plasmodium falciparum ,using a nano luciferase reporter read-out” (2022).

Each structure is given as a SMILES string. Screen size: about 150,000 compounds; about 540 (0.36%) showed an effect of 50% or more. The list shows a part of the results.

This assay deals with Plasmodium falciparum. Description: Primary screen in NF54 nanoGlo assay, in single point, at 2uM, 72h; a lower Z score goes with more inhibition. The class given is functional, Erythrocyte. The note with it: timepoint 72 hour.
In general, % Inhibition refers to the drop in the measured response relative to a control, in per cent. For the compound `C#CCCNC(=O)NCc1snc(OC)c1Br`, the “% Inhibition” value is recorded as -6% and the Z score is reported as 0.96.

For `O=C(Nc1ccc(-c2nc(-c3ccccc3)c3cc(NC(=O)c4cccs4)ccc3n2)cc1)c1cccs1`, the “% Inhibition” value is -3% and the Z score is listed as 0.67.

On to `CC(C)c1nc(CCNC(=O)c2cccc(-c3ncnn3C(C)C)c2)no1`, for which the “% Inhibition” value is listed as -12% and the Z score came out at 2.05.

For the compound `Cc1ccc(C(=O)N(CC(=O)N2CCc3sccc3C2COc2ccc(C)cc2C)CC2CCCO2)cc1` (centres undefined), the “% Inhibition” value is reported as -8% and the Z score is listed as 1.35.

For the compound `COCc1nc(-c2ccc(-n3ccnc3)cc2)n(CCO)n1`, the “% Inhibition” value is -9% and the Z score amounted to 1.43.

Consider `NC(=O)c1cc([C@H]2CCCN(Cc3nnnn3C3CC3)C2)n[nH]1`, for which the “% Inhibition” value was -13% and the Z score is 1.29.

As for `CCCN1CCN(c2ccc(NC(=O)Cn3nc4ccccn4c3=O)c(OCC)c2)CC1`, the “% Inhibition” value is -10% and the Z score was 1.88.

In the case of `C[C@@H](C(=O)Nc1nncs1)N1CCCCCCC1`, the “% Inhibition” value is listed as -3% and the Z score is 0.45.

`COCCN1C[C@]2(CCCN(c3ccc(C#N)cn3)C2)CCC1=O`: the “% Inhibition” value was found to be 6% and the Z score is reported as -1.2.

Consider `Cc1nccn1CCNC(=O)c1cnn2ccn(C)c12`, for which the “% Inhibition” value is recorded as 0% and the Z score was found to be 0.06.

For `CC(=O)Nc1ccc(S(=O)(=O)Nc2nnc(Cc3ccc(Cl)cc3)s2)cc1`, the “% Inhibition” value is -9% and the Z score was determined as 1.65.

Regarding `O=C(Nc1c2c(nc3ccccc13)CCCC2)c1ccccc1Br`, the “% Inhibition” value is reported as -14% and the Z score is on record as 1.83.

`Cc1cc([C@H](C(=O)O)N(C)CCCCN2CCOCC2)ccc1F`: the “% Inhibition” value is reported as -17% and the Z score came to 2.33.

Turning to `CCN1CCN(C(=O)C[C@H](c2cccc(C(F)(F)F)c2)c2c[nH]c3ccc(OC)cc23)CC1`, the “% Inhibition” value was 2% and the Z score was -0.3.

As to `CCOc1ccc(-c2cc(C(=O)NCCc3ccc(OC)c(OC)c3)c3c(-c4ccc(F)cc4)[nH]nc3n2)cc1`, the “% Inhibition” value was -19% and the Z score is recorded as 1.76.

For the compound `Cc1ccc(-n2ncc3c2CC(C)(C)C[C@@H]3NS(=O)(=O)c2cccnc2)cc1`, the “% Inhibition” value is recorded as -15% and the Z score was found to be 1.84.

Turning to `CC(C)N(CC(=O)N1c2ccccc2-n2cccc2[C@H]1c1ccc(F)cc1)C(=O)c1ccc(Cl)cc1Cl`, the “% Inhibition” value was -9% and the Z score is recorded as 1.24.

As to `CCN(C[C@@H](C)O)C(=O)c1ncccc1-n1ncc2ccccc21`, the “% Inhibition” value was -7% and the Z score is 1.38.

Turning to `Cc1cc(C)cc(CCC(=O)Nc2c(C)noc2C2CC2)c1`, the “% Inhibition” value is recorded as 2% and the Z score is listed as -0.28.

For the compound `Cc1noc(C)c1N(C)CC(=O)NCC(C)C`, the “% Inhibition” value is 27% and the Z score is given as -3.01.

Take `COc1ccc(Nc2nc(C(=O)Nc3ncc(C)s3)cs2)cc1OC`: the “% Inhibition” value stood at 30% and the Z score is given as -1.16.

For `CCn1nc(C)c(CN[C@@H]2COC(C)(C)C2)n1`, the “% Inhibition” value is on record as -2% and the Z score was 0.22.

As for `CN(Cc1c[nH]nc1-c1c(F)cccc1F)CC1CCOCC1`, the “% Inhibition” value is 3% and the Z score was -0.36.

In the case of `c1ccc2c(-c3noc4c3CN(CCN3CCOCC3)CC4)cccc2c1`, the “% Inhibition” value is 4% and the Z score is given as -0.54.

For `O=S(=O)(c1ccc(F)cc1)N1CCc2nc(N3CCCC3)nc(Oc3ccc(F)cc3)c2C1`, the “% Inhibition” value is given as -6% and the Z score amounted to 0.75.

As to `CCC(N[C@H](C)CO)c1cccc(Cl)c1F` (some centres undefined), the “% Inhibition” value is recorded as -9% and the Z score is 1.73.

Turning to `CCN(CC)C(=O)N(C)c1ccc2ccccc2n1`, the “% Inhibition” value is listed as -12% and the Z score turned out to be 1.21.

In the case of `O=C(NCc1cccnc1)[C@@H]1C[C@@H](O)CN1C1CCN(C(=O)c2cc3ccccc3[nH]2)CC1`, the “% Inhibition” value came out at 2% and the Z score is -0.22.

`CCN(C(=O)c1cn(CCC(C)C)nn1)c1ccccc1Cl`: the “% Inhibition” value was -1% and the Z score is reported as 0.1.

Consider `O=C(CCc1nc2ccccc2[nH]1)N1CC[C@H](Cc2ccc(CO)cc2)C1`, for which the “% Inhibition” value is given as -8% and the Z score stood at 1.55.

For `NC(=NOCC(=O)N1CCCc2ccccc21)c1ccccc1`, the “% Inhibition” value is -1% and the Z score stood at 0.11.

With `Cc1nn(C)c2ncnc(N3CC(C)(C)N(C)C[C@@H]3C)c12`, the “% Inhibition” value is on record as 0% and the Z score came out at 0.03.

With `CCC[C@H]1CN(C(=O)Cc2ccncc2)C[C@@H]1NC(C)=O`, the “% Inhibition” value is on record as -3% and the Z score amounted to 0.45.

`O=C(NC1CCC(O)CC1)C(F)(F)F` (centres undefined): the “% Inhibition” value is -6% and the Z score is listed as 1.08.

As to `CCOC(=O)c1nnsc1Nc1ccc(N)cc1`, the “% Inhibition” value was 7% and the Z score is -0.91.

Consider `CN(C)[C@H]1[C@H](NC(=O)CCc2cccnc2)[C@@H]2CCO[C@@H]21`, for which the “% Inhibition” value is -8% and the Z score is 1.46.

With `CC1=CC(=C2CC(C)(C)N=C2C)C=C(C)C12CC(C)(C)N=C2C` (centres undefined), the “% Inhibition” value is recorded as 6% and the Z score is on record as -0.73.

On to `CC(C)n1cc(C(=O)N2CCC(O)(Cc3cccc(F)c3)CC2)cn1`, for which the “% Inhibition” value was -13% and the Z score was 1.48.

On to `CCC(CC)CN(CC)C(=O)Cc1ccn(CC(F)(F)F)n1`, for which the “% Inhibition” value was -9% and the Z score came to 1.11.

`O=C(N[C@H]1CCc2nccn2C1)C1(c2cccs2)CCCCC1`: the “% Inhibition” value is reported as -4% and the Z score is listed as 0.8.

For `CC(C)(C)c1nnn(CC(=O)Nc2ccnn2C2CCCCC2)n1`, the “% Inhibition” value is recorded as -6% and the Z score is 0.8.

In the case of `O=C(Nc1c2c(nc3ccccc13)CCCC2)c1cccc(Cl)c1`, the “% Inhibition” value is -9% and the Z score stood at 1.13.
